# Source: the supplement of paper PMC10126150
# Values marked as one replicate rest on one cluster of the flow cell; about a third of the high ones do not repeat.
# Tested on: ATP
# Test: switch fluorescence ratio, 500 uM ATP over buffer (Cy3 cluster intensity, sum of 5 cycles each) (fold (ratio)); higher = stronger signal-on switching upon ATP binding; sequences stand for … in TCGTCGGCAGCGTCAGATGTGTATAAGAGACAGTTTTTTTTTTTTTTTTTTTTTTTTT…TC
# Settings: aptamer strand: ATP DNA aptamer (quencher-CACCTGGGGGAGTATTGCGGAGGAAGG + anchor), 100 nM annealed; ATP concentration: 500 uM; one replicate
# Summary of the method: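 After annealing to 100 nM quencher-labelled ATP aptamer, Cy3-labelled switching-strand clusters on a modified Illumina MiSeq flow-cell were imaged in selection buffer. A second image followed after 15 min with 500 uM ATP at 22 °C, and five such buffer/ATP cycles were done, each separated by NaOH stripping and re-annealing. The fluorescence ratio, averaged per switch-domain sequence, is summed target-cycle over summed buffer-cycle Cy3 intensity per cluster, with clusters outside 100-1000 RFU excluded.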
# 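Also: ATP exposure 15 min at 22 °C before imaging.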
row,Sequence,switch fluorescence ratio
1,CGCTAGTGC,1.89
2,CGCTATAACT,2.47
3,CGCTCATGCT,1.11
4,CGCTGAATTC,1.27
5,CGCTGACGTC,1.05
6,CGCTGACGTG,0.983
7,CGCTGGAGCA,1.04
8,CGCTGGCGTG,0.993
9,CGCTGTGTTA,1.03
10,CGCTTAAAGA,1.01
11,CGCTTAGAGG,1.04
12,CGCTTATTTG,0.99
13,CGCTTCAC,2.22
14,CGCTTGGGCT,1.02
15,CGCTTGGGGG,1.01
16,CGCTTTGGCA,1.02
17,CGGAAAGGAG,0.983
18,CGGAAATGC,2.3
19,CGGAAATTGC,1.02
20,CGGAAGGG,1
21,CGGAAGGGAA,1.1
22,CGGAAGTCTG,0.986
23,CGGAAGTGGG,0.975
24,CGGAATAAGC,1.22
25,CGGACACCAG,1.01
26,CGGACCAACT,1.03

row,Sequence,switch fluorescence ratio
1,CGGACCCGTC,0.957
2,CGGACCGAAA,0.953
3,CGGACCGCTC,1.39
4,CGGACGCGCA,1.79
5,CGGACGCTTG,1.03
6,CGGACGTCTA,1.12
7,CGGACGTGGT,1.08
8,CGGACTACAC,1.3
9,CGGACTGTTG,1
10,CGGAGAAACG,1.01
11,CGGAGAGTTC,1.06
12,CGGAGATGC,1.23
13,CGGAGCCGGT,0.992
14,CGGAGCGCAC,4.5
15,CGGAGGGTAT,1
16,CGGAGGTATC,1.06
17,CGGAGGTCTT,0.975
18,CGGAGGTTT,1.06
19,CGGAGTAGGA,1.04
20,CGGAGTCCTG,0.974
21,CGGAGTGCAG,1.09
22,CGGAGTGTTG,0.944
23,CGGAGTTACG,1.03
24,CGGAGTTGCA,1.08
25,CGGAGTTTTA,1.09
26,CGGATAGAAG,0.994

row,Sequence,switch fluorescence ratio
1,CGGATATTAT,1.01
2,CGGATCAA,1
3,CGGATGAATC,1.01
4,CGGATTCTTC,0.988
5,CGGATTGTCT,1.07
6,CGGATTTCCT,1.6
7,CGGCAAGGGA,1.02
8,CGGCAAGT,1.23
9,CGGCAATCG,1.57
10,CGGCACAAT,1.2
11,CGGCAGGAGC,0.972
12,CGGCAGGCCG,1.04
13,CGGCAGGGTC,1.04
14,CGGCATGGGA,1.05
15,CGGCCAGCGC,1.04
16,CGGCCGCTTG,3.71
17,CGGCCGGGG,0.985
18,CGGCCGTAAC,1.07
19,CGGCCTATTG,1.02
20,CGGCCTGCCG,1.03
21,CGGCCTGTCG,0.897
22,CGGCGACAGC,0.936
23,CGGCGACCAG,0.984
24,CGGCGAGAT,1.05
25,CGGCGAGCCC,1.05
26,CGGCGCGATT,2.08

row,Sequence,switch fluorescence ratio
1,CGGCGGCGTG,1.04
2,CGGCGGGATA,1.02
3,CGGCGTAACA,1.07
4,CGGCGTCAGT,1.03
5,CGGCGTCATT,0.999
6,CGGCTAAGTC,1.1
7,CGGCTACCTG,0.978
8,CGGCTGATGG,1.05
9,CGGCTGGTGT,1.06
10,CGGCTGTGCG,0.972
11,CGGCTTTTCA,0.993
12,CGGGAACATG,0.989
13,CGGGAAGGGA,0.974
14,CGGGAAGGTC,1.08
15,CGGGACCGTC,1.02
16,CGGGAGGTTG,0.961
17,CGGGAGTACG,0.951
18,CGGGATTAGG,0.99
19,CGGGCCAGGG,1.01
20,CGGGCCCGCT,1.01
21,CGGGCCGTTC,0.952
22,CGGGCCTTA,1.01
23,CGGGCGCAAG,1.05
24,CGGGCGGATC,1.01
25,CGGGCGGATT,1.01
26,CGGGCGGCA,1.03

row,Sequence,switch fluorescence ratio
1,CGGGCTAGCA,0.965
2,CGGGCTTAGC,1.03
3,CGGGGACATC,1.01
4,CGGGGAGATG,0.998
5,CGGGGATATA,0.943
6,CGGGGATCGC,0.954
7,CGGGGATTGT,0.959
8,CGGGGCCTGT,0.983
9,CGGGGCGTA,1.04
10,CGGGGGTAAA,0.989
11,CGGGGTGCAA,1.31
12,CGGGTAGCAT,1.05
13,CGGGTATATG,0.987
14,CGGGTATGAA,1.04
15,CGGGTCCTGT,0.967
16,CGGGTCTAAT,0.947
17,CGGGTTAAGA,1.06
18,CGGGTTAT,1.02
19,CGGGTTATAC,1.44
20,CGGGTTGGAC,1.03
21,CGGTAAAGT,1.03
22,CGGTAAGAAA,1.01
23,CGGTAATCG,0.996
24,CGGTACATCT,1.01
25,CGGTACATTA,1.02
26,CGGTACTAG,0.973

row,Sequence,switch fluorescence ratio
1,CGGTAGATCA,0.954
2,CGGTAGCGCG,1.01
3,CGGTAGCGTG,1.03
4,CGGTAGGTAC,1.07
5,CGGTATATCC,1.01
6,CGGTATCATG,0.905
7,CGGTATCTTT,0.993
8,CGGTATGCTA,0.975
9,CGGTATGTCA,0.913
10,CGGTATGTT,1
11,CGGTCAGGAC,1.17
12,CGGTCATAAT,1.01
13,CGGTCCACTC,1.04
14,CGGTCCTGAT,0.981
15,CGGTCTCTCT,1
16,CGGTGAATCC,1.03
17,CGGTGAGCGG,1.02
18,CGGTGCGCT,1.04
19,CGGTGGCCGG,1.03
20,CGGTGGCGTG,0.995
21,CGGTGGGTT,1
22,CGGTGTCCGC,0.932
23,CGGTTAACGC,1.04
24,CGGTTCCGCC,0.979
